Several values for one entry are separate records, joined by “and”; a condition that tells them apart may be missing. Equal values may be shown once. About 540 (0.36%) of roughly 150,000 compounds showed an effect of 50% or more. Some of the results follow.
System: Plasmodium falciparum
Assay: Primary screen in NF54 nanoGlo assay, in single point, at 2uM, 72h; a lower Z score goes with more inhibition
Format: functional, Erythrocyte
Conditions: timepoint 72 hour

Row | SMILES | % Inhibition | Z score | % Inhibition (2 µM)
1 | N#Cc1cccnc1Oc1ccc2oc3ccccc3c2c1 | -4% | 0.55 | 
2 | N#Cc1nc2sc(N)c(-c3nc4ccccc4[nH]3)c2nc1C#N | -8% | 1.14 | 
3 | CC(C)(O)C1CN(C(=O)c2nn(-c3ccc(Cl)cc3F)c3c2CCC3)C1 | -4% | 0.43 | 
4 | Cc1ccsc1CN(C)c1cc([C@H]2C[C@H](N)C2)ncn1 | -3% | 0.54 | 
5 | CCOC1CC(N(C)S(=O)(=O)c2cnc(C)s2)C12CCC2 (stereo unspecified) | -5% | 0.63 | 
6 | CCN1CC2(CCN(C(=O)c3ccc(Cl)s3)CC2)CC1=O | 6% | -1.09 | 
7 | COc1ccc(CCCN(C)c2cc(N3CCC[C@H](CO)C3)ncn2)cc1 | -17% | 1.74 | 
8 | CN(CCOc1ccc(Br)cc1)C(=O)c1ccc(N(C)C)cc1 | 4% | -0.84 | 
9 | C[C@H](NC(=O)c1ccc(=O)n(C)c1)c1ccc2[nH]ccc2c1 | -3% | 0.48 | 
10 | Cc1nc2ccc(N3CCC[C@H](S(C)(=O)=O)CC3)nn2n1 | 2% | -0.4 | 
11 | C[C@]1(C(=O)O)CCN(C(=O)c2csc(-c3ccc(Cl)s3)n2)C1 | -1% | 0.11 | 
12 | COC(=O)c1cc(N)cc(C(=O)OC)c1 | 35% | -3.98 | 
13 | O=C(Cn1cnc2nc(N3CCOCC3)sc2c1=O)Nc1cccc(F)c1 | -13% | 1.54 | 
14 | COCCC1(c2noc(-c3ccncc3)n2)CCN(C(=O)c2cn[nH]c2)CC1 | 5% | -0.69 | 
15 | c1ccc(-c2ncc(CNc3ncccn3)s2)nc1 | 0% | 0.01 | 
16 | Cc1nc(CCC(=O)NCc2ccc3[nH]c4c(c3c2)CCCCCC4)n[nH]1 | -16% | 1.94 | 
17 | CCOc1cc(NC[C@H](O)C(C)(C)C)ncn1 | -6% | 0.94 | 
18 | O=C(c1ccncc1)N1CCCC[C@@H]1CCN1CCCCC1 | -1% | 0.22 | 
19 | COc1ccc(OC[C@H]2CCCN(Cc3nnc(C)s3)C2)cc1 | -1% | 0.15 | 
20 | COCc1ccc(CC2CCN(C(=O)c3ccco3)CC2)cc1 | -14% | 2.69 | 
21 | CCC(=O)Nc1ccc(Cc2nc3cc(C(=O)N4CCCCCC4)ccc3[nH]2)cc1 | -15% | 1.78 | 
22 | CCn1cc(CN2C[C@@H]3c4ccc(OC)cc4OC[C@]3(CO)C2)cn1 | -1% | 0.26 | 

Row | SMILES | % Inhibition | Z score | % Inhibition (2 µM)
23 | CC1(CNC2CCC(NC(=O)OC(C)(C)C)CC2)CCOCC1 (stereo unspecified) | -10% | 1.68 | 
24 | OCC#Cc1csc(CN2CC[C@H](CO)C2)c1 | 5% | -0.88 | 
25 | CN(CCc1ncon1)C(=O)CCOc1ccccc1 | -18% | 3.38 | 
26 | O=C(CCOc1ccccc1)N1CC[C@H](c2ccc(F)cc2)[C@@H](O)C1 | -14% | 2.04 | 
27 | O=C(NCc1ccco1)NC[C@H]1CCCO1 | 1% | -0.1 | 
28 | CCOc1ccc(-c2nc(N(CC)Cc3ccccc3)c3ccccc3n2)cc1 | 3% | -0.43 | 
29 | COc1ccc(N(C(=O)Cn2nnc3ccccc32)[C@@H](C(=O)Nc2ccc(F)cc2)c2cc(OC)c(OC)c(OC)c2)cc1 | -23% | 2.72 | 
30 | CN(C)c1ccc(/C=C\c2ccnc(/C=C/c3ccc(N(C)C)cc3)c2)cc1 | 6% | -1.06 | 
31 | COc1cc(OC)nc(N2CCC([C@H](C)N3CCN(C)CC3)CC2)n1 | -2% | 0.15 | 
32 | N#Cc1ccccc1OCCN1CCS(=O)(=O)CC1 | -3% | 0.38 | 
33 | O=C(NC1CCCC1)C1C2CCC(C2)N1C(=O)c1ccccc1 (stereo unspecified) | 21% | -2.41 | 
34 | N#Cc1ccc(C(=O)N2CCC[C@@](F)(CO)C2)[nH]1 | -27% | 5.08 | 
35 | CC(C)C[C@@H](CO)Nc1nccc(C(F)(F)F)n1 | -11% | 1.54 | 
36 | CCN(CC)C(=O)c1coc(CN2C(=O)COc3ccc(C(=O)COc4ccc(OC)cc4)cc32)n1 | -25% | 2.38 | 
37 | O=C1COc2cc(C(=O)N(CCc3ccccc3)Cc3ccccc3)ccc2N1 | 9% | -1.18 | 
38 | C[C@H]1CCN(c2nnnn2Cc2ccnn2C)CC12CCC2 | -6% | 0.98 | 
39 | Cc1cc(C(F)(F)F)cnc1N[C@H]1[C@@H]2COC[C@@H]21 | 2% | -0.36 | 
40 | Cc1ccc(Nc2[nH]c(NCc3ccc4c(c3)OCO4)nc3nncc2-3)cc1C | 1% | -0.19 | 
41 | COc1cccc(-c2ccnc3nc(N4CCOCC4)[nH]c(=O)c23)c1 | -16% | 2.29 | 
42 | Cc1ccc(C)c(S(=O)(=O)Nc2cccn3nc(C4CCC4)nc23)c1 | -5% | 0.88 | 
43 | N#Cc1ccc(C(=O)N[C@H]2CCN(c3cc(-c4ccc(Cl)cc4)n[nH]3)C2)cc1 | -14% | 1.46 | 
44 | Cn1nccc1COCC(=O)Nc1cccc2[nH]cnc12 | -12% | 1.06 | 

Row | SMILES | % Inhibition | Z score | % Inhibition (2 µM)
45 | CCOc1ccc(Nc2cnnc(O)n2)cc1 | 3% | -0.4 | 
46 | CC(C)c1cc(C(=O)Oc2ccc(-c3nnco3)cc2)c2ccccc2n1 | -7% | 0.69 | 
47 | COc1ccccc1CN1Cc2cc(NS(=O)(=O)c3ccc(F)cc3)ccc2O[C@@H](C)C1=O | 1% | -0.1 | 
48 | C[C@@H]1CN(C(=O)c2cccc3ccc(O)nc23)C[C@H](C)N1C | -35% | 4.09 | 
49 | CCc1nnc(NCc2ccc3c(c2)OCCO3)s1 | -12% | 2.25 | 
50 | CC1Cc2ccccc2N1C(=O)C1CCCCC1C(=O)NCC#N (stereo unspecified) | 3% | -0.4 | 
51 | CCn1cc(N(CC(C)C)C(=O)C(F)F)cn1 | 2% | -0.3 | 
52 | CCOCCNC(=O)CC(=O)Nc1cc(Cl)ccc1C | 2% | -0.31 | 
53 | COc1cccc(-c2oncc2CN2CCN(C(C)=O)CC2)c1 | 10% | -1.91 | 
54 | CC(C)NC(=O)C1Cc2cc(C(F)(F)F)ccc2N2CCN(Cc3ccc(F)cc3)CC12 (stereo unspecified) | 4% | -0.45 | 
55 | CN(C)c1ccc(-c2noc([C@H]3C[C@@H]3c3ccc(F)cc3F)n2)cn1 | -13% | 1.28 | 
56 | CCS(=O)(=O)Oc1ccc(Cl)cc1CN(CCN(C)C)C(=O)C(C)C | 2% | -0.31 | 
57 | Cn1cc(-c2ccc(F)c(C(=O)N3CC[C@H](NS(C)(=O)=O)C3)c2)cn1 | -11% | 2.14 | 
58 | CN(C)Cc1cc(C(=O)N[C@H](c2cccs2)C2(CO)CCC2)no1 | 1% | -0.09 | 
59 | O=C(COc1ccc(Br)cc1Br)N(Cc1ccccc1)C1CC1 | -11% | 1.02 | 
60 | Brc1cnc2[nH]c(C3CC3)nc2c1 | 0% | 0.01 | 
61 | Cc1noc(C)c1CNC(=O)c1cnccn1 | -2% | 0.2 | 
62 | Cc1ccc2oc(N[C@@H]3C(=O)NCC3(C)C)nc2c1 | 3% | -0.59 | 
63 | O=C(N1CCOCC2(CCC2)C1)C12CCC(CC1)C2 | -22% | 3.39 | 
64 | COC1(c2noc(C(=O)N3CCC[C@H](C)C3)n2)CCC1 | 0% | 0.01 | 
65 | Cc1ccc(CNCc2scnc2C)c(OCC2CC2)c1 | -4% | 0.5 | 
66 | COCCN1C(=O)C[C@H](CNc2nccn3nc(C)cc23)[C@H]1c1cnn(C)c1 | -8% | 1.4 | 

Row | SMILES | % Inhibition | Z score | % Inhibition (2 µM)
67 | CN(C)CCN(C)c1ccc(Br)cc1NCc1cnn(C)n1 | -12% | 1.77 | 
68 | Cc1ccc2nccc(C(=O)N3CCC[C@H](Cn4cc(C(C)(C)N)nn4)C3)c2c1 | -6% | 0.76 | 
69 | C[C@H]1CN(CCC(=O)N2CCc3ccccc3C2)CC[C@]1(O)C1CC1 | 8% | -1.5 | 
70 | Nc1nc2c(c(N3CC=CC3)n1)CCN(C(=O)N1CCCCC1)CC2 | -2% | 0.24 | 
71 | C[C@H]1CN(C(=O)c2cccnc2C2CC2)CCN1C(=O)c1cccnc1C1CC1 | -4% | 0.69 | 
72 | COc1c(F)cc(C[C@@H]2CC[C@H](CN3CCCOCC3)O2)cc1F | -6% | 0.79 | 
73 | CCC1C(C)CCN1S(=O)(=O)CCc1noc2ccccc12 (stereo unspecified) | -15% | 2 | 
74 | C[C@H]1COCCN1C(=O)CN1C(=O)COc2ccc(Cl)cc21 | -8% | 1.26 | 
75 | COc1ccc(NC(=O)c2ccccc2NCc2cc3c(cc2Br)OCO3)cc1 | -34% | 4.01 | 
76 | C#CC(C)NC(=O)NC1CCC(C(=O)OC)C1 (stereo unspecified) | -6% | 0.81 | 
77 | CC(C)c1nc(N2CCN(Cc3ccc(C(=O)O)cc3)CC2)no1 | 0% | 0.07 | 
78 | CN(C)CCOC(=O)c1ccc(F)cc1 |  |  | 4% and -8%
79 | Cc1cc(C(=O)NCc2ccccn2)nn1-c1ccc(F)cc1F | -2% | 0.22 | 
80 | Cc1nc(C(=O)Nc2cccc(N3CCCCC3)c2)nn1-c1ccccc1Cl | -23% | 2.3 | 
81 | Cc1ccc2c(NC(=O)c3cccs3)cccc2n1 | -10% | 2 | 
82 | CC[C@H]1c2cccn2CCN1C(=O)CN(C)S(=O)(=O)c1ccc(Br)cc1 | 1% | -0.17 | 
83 | COC(=O)c1ccc(Cl)c(CN2CC3OCCN(C)C3C2)c1 (stereo unspecified) | -6% | 0.56 | 
84 | COCCN(Cc1ccc(OC)c(OC)c1)Cc1ccc(C(O)(c2ccc(OC)cc2)c2ccc(OC)cc2)o1 | 3% | -0.46 | 
85 | CCC[C@H]1CN(C(=O)CNC)C[C@@H]1Nc1cc(C2CC2)ncn1 | -6% | 0.98 | 
86 | COc1ccc2c(c1)Oc1ccccc1N=C2N1CCN(C(=O)Nc2cccc(C(F)(F)F)c2)[C@@H](C)C1 | 2% | -0.19 | 
